From PubChem BioAssay AID1508621 (National Center for Advancing Translational Sciences (NCATS), 2021)
The inconclusive results got no clear call from the source; some entries with a clear call stand among them for comparison. A potency beside an inconclusive call is a rough fit, not a confirmed value. Calls of active or inactive are those of the source. The call rests on the fitted dose curve; in most records, active means well fitted inhibition curve with a large enough effect; inconclusive means small, poorly fitted or top-dose-only effect; inactive means no such curve, though single readings can be large or run the other way.

Test: Confirmatory qHTS for Identification of Small Molecule Inhibitors of Huntingtin Promoter Activity; further: nearly all actives have a fitted effect of over 65% in size
Conditions: HEK293 HTT promoter firefly luciferase reporter, 24 h; series mostly up to 57.5 µM
Method in brief: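 Activity normalized between vehicle control (0%) and zero RLU (-100%) from firefly luminescence (Dual-Glo). Compounds, up to 57.5 uM final, incubated 24 h at 37C on HEK293 reporter cells plated 24 h earlier.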
Potency means the concentration at half of the fitted maximal effect; tags describe the fitted curve by direction and shape.

| Structure (SMILES) | Potency |
| --- | --- |
| COc1ccc(S(=O)(=O)Nc2cc3c(C(=O)OC(C)C)c(C)oc3c3ccccc23)cc1 | inconclusive: 10.7 µM [inhibitor, partial curve] |
| CSc1cccc(NC(=O)C2CCN(S(=O)(=O)c3ccc4[nH]c5c(c4c3)CCCCC5)CC2)c1 | inconclusive: 21.3 µM [inhibitor, single point] |
| CCC(Oc1ccccc1)C(=O)N1CCN(Cc2cc(=O)n3nc(-c4cccc(C)c4)sc3n2)CC1 (stereo not given) | inconclusive: 21.3 µM [inhibitor, single point] |
| COc1ccc(N2CCN(C(CNC(=O)C(=O)NCc3ccc(C)cc3)c3cccnc3)CC2)cc1 (stereo not given) | inconclusive: 23.9 µM [inhibitor, partial curve] |
| CCOc1ccc(CNC(=O)c2ccc(Sc3ccc(Cl)cc3)c(NC(C)=O)c2)cc1OC | inconclusive: 12 µM [inhibitor, partial curve] |
| O=C(O)c1cc(-n2c(/C=C\c3ccc(F)cc3)nc3ccccc3c2=O)ccc1Cl | inactive |
| COc1ccc(-c2noc(C(C)NC(=O)c3ccco3)n2)cc1 (stereo not given) | inconclusive: 33.8 µM [inhibitor, single point] |
| CCOc1ccc(CNC(=O)C2CCN(c3nnc(-n4c(C)ccc4C)s3)CC2)cc1 | inconclusive: 3.01 µM [inhibitor, partial curve] |
| CCOCCCNC(=O)c1c[nH]c2ccc(S(=O)(=O)N(C)c3ccc(Cl)cc3F)cc2c1=O | inconclusive: 21.3 µM [inhibitor, partial curve] |
| COc1cccc(OCc2nc3ccccc3n2CCOc2ccccc2)c1 | inconclusive: 42.6 µM [inhibitor, single point] |
| Cc1cccc(CNC(=O)C2CCN(S(=O)(=O)c3ccc4c(c3)CCCN4C(=O)C3CCC3)CC2)c1 | inconclusive: 26.9 µM [inhibitor, partial curve] |
| O=C(C=Cc1ccc(O)cc1)c1ccc(O)cc1O | inactive |
| CC(=O)N1CCCc2cc(S(=O)(=O)N(C)CC(=O)Nc3cccc(Cl)c3C)ccc21 | inconclusive: 21.3 µM [inhibitor, single point] |
| CCC(C(=O)NCCc1ccc(SC)cc1)n1nc(C)c2c(C)n(-c3ccc(C)cc3)nc2c1=O (stereo not given) | inconclusive: 10.7 µM [inhibitor, partial curve] |
| CSc1ncc(Cl)c(C(=O)Nc2ccc(S(=O)(=O)N3CCC(C)CC3)cc2)n1 | inconclusive: 16.9 µM [inhibitor, partial curve] |
| COc1cccc(NC(=O)c2oc3ccc(S(=O)(=O)N4CCCCCC4)cc3c2C)c1 | inconclusive: 15.1 µM [inhibitor, partial curve] |
| COc1cc(CNc2ccc3[nH]c(=O)[nH]c3c2)cc(Br)c1OCc1ccc(F)cc1 | inconclusive: 8.49 µM [inhibitor, partial curve] |
| Cc1ccccc1-c1noc(CSc2nc3ccccc3[nH]2)n1 | inconclusive: 12 µM [inhibitor, partial curve] |
| Cc1cccc(N2CCN(C(=O)C3CCCN(S(=O)(=O)c4ccc5c(c4)oc(=O)n5C)C3)CC2)c1C (stereo not given) | inconclusive: 3.01 µM [inhibitor, partial curve] |
| Cc1ccc(CSc2ncc(Cl)c(C(=O)NCCc3ccc(S(N)(=O)=O)cc3)n2)cc1 | inconclusive: 30.1 µM [inhibitor, partial curve] |

| Structure (SMILES) | Potency |
| --- | --- |
| CCOc1ccccc1C(=O)Nc1nc2c(s1)CC(C)CC2 (stereo not given) | inactive |
| Cc1cccc(C(=O)Nc2nc(-c3nnn(-c4cc(F)ccc4F)c3C)ns2)c1 | inconclusive: 13.5 µM [inhibitor, partial curve, poor fit] |
| Cc1cccc(C)c1NC(=O)c1ccc2nc(CCc3ccccc3)oc2c1 | inconclusive: 16.9 µM [inhibitor, partial curve] |
| Cc1ccc(Cn2c(SCc3ccc(C(=O)N4CCCCC4)cc3)nc3ccncc32)cc1 | inconclusive: 12 µM [inhibitor, partial curve] |
| CC[C@@H]1C(=O)N(C)c2cnc(Nc3ccc(C(=O)NC4CCC(N5CCN(CC6CC6)CC5)CC4)cc3OC)nc2N1C(C)C (stereo not given in full) | inactive |
| Cc1cc(OCC(=O)N2CCC(c3nc4ccccc4s3)CC2)ccc1Cl | inconclusive: 21.3 µM [inhibitor, single point] |
| Cc1cccc(NC(c2cccc(Cl)c2)c2ccc3cccnc3c2O)n1 (stereo not given) | inconclusive: 1.69 µM [inhibitor, full curve] |
| O=C(Nc1ccc(S(=O)(=O)N(Cc2ccccc2)c2ccccc2)cc1)c1ccc(F)cc1 | inconclusive: 13.5 µM [inhibitor, partial curve] |
| CCc1ccc2c(c1)-c1ccccc1S(=O)(=O)N2CC(=O)N1CCC(C)CC1 | inactive |
| Cc1cc(Nc2sc(C(=O)c3ccc(F)cc3)c(N)c2C(=O)Nc2ccc(F)cc2)ccc1Cl | active: 1.69 µM |
| O=C(NCC(c1ccc2c(c1)OCO2)N1CCN(c2ccccc2)CC1)c1ccc(F)c(F)c1 (stereo not given) | inconclusive: 21.3 µM [inhibitor, single point] |
| Cc1cccc(Cn2c(SCc3ccc(C(=O)N4CCC(C)CC4)cc3)nc3ccncc32)c1 | inconclusive: 23.9 µM [inhibitor, partial curve] |
| CC(=O)c1ccc(NS(=O)(=O)c2ccc3[nH]c(=O)[nH]c3c2)cc1 | inactive |
| CCc1ccc(OC(C)C(=O)N2CCC(c3nc4ccccc4s3)CC2)cc1 (stereo not given) | inconclusive: 30.1 µM [inhibitor, single point] |
| Cc1ccc2onc(CC(=O)N3CCN(c4cc(Cl)ccc4C)CC3)c2c1 | inconclusive: 26.9 µM [inhibitor, single point] |
| Cc1ccc(Cl)cc1N1CCN(C(=O)C2CCN(S(=O)(=O)c3ccc4c(c3)oc(=O)n4C)CC2)CC1 | inconclusive: 26.9 µM [inhibitor, single point] |
| COc1ccccc1N1CCN(C(=O)C2CCCN(S(=O)(=O)c3ccc4c(c3)CCCN4C(C)=O)C2)CC1 (stereo not given) | inconclusive: 21.3 µM [inhibitor, partial curve] |
| CCc1cccc(C)c1NC(=O)CCCN1C(=O)C(c2ccccc2)Oc2cccnc21 (stereo not given) | inconclusive: 37.9 µM [inhibitor, single point] |
| CC(=O)Nc1cccc(NC(=O)Cc2csc(COc3cccc(C)c3)n2)c1 | inconclusive: 33.8 µM [inhibitor, partial curve, poor fit] |
| COc1ccccc1C(=O)NCCSc1c(C)[nH]c2ccccc12 | inconclusive: 16.9 µM [inhibitor, partial curve] |
